# Test results taken from PubChem BioAssay (Tox21).
# The shares of active, inactive and inconclusive entries below differ from those in the screen. No potency is given beside an inconclusive call; the fits are too rough. Active and inactive are the calls of the source. Calls come from the whole dose curve; as a rule, active = well fitted activation curve with a large enough effect in the signal ratio in the repeat runs (not every such curve was filed as active); inconclusive = weak or mixed curves; inactive = flat fitted curve, though single readings scatter; the % refers to the signal ratio. Positions of bridges follow the written chain, without caps; N, C: chain ends. Non-standard residues stand in square brackets, D forms with d. Residues, ends and D or L forms follow the SMILES beside them. hArg = N=C(N)NCCCC[C@H](N)C(=O)O; Mpa = O=C(O)CCS
# Experiment: p53 small molecule agonists, cell-based qHTS assay (AID 1963582)
# Details: HCT-116 p53RE-bla reporter, beta-lactamase FRET ratio, 16 h; activation: at 66 µM (top of the series) unless noted
# How it was run: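 Beta-lactamase reporter cells (p53RE-bla) treated with compounds for 16 h at 37 C; FRET substrate, 2 h, room temperature; fluorescence intensity.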
# % is set by controls: 0 for no effect and ±100 for the full control effect; potency is the fitted concentration of half-maximal effect; tags give direction and shape of the fitted curve or compound fluorescence and quenching.
SMILES,activation,Potency
CCOc1ccccc1O,inactive: -4.12%,–
O=S(=O)(O)CC(O)CCl (configuration not stated),inactive: -0.122%,–
COc1ccc(C(C)=O)cc1,inactive: -0.192%,–
CCCCC(CC)COP(=O)(O)O (configuration not stated),–,"inconclusive [rising, full curve]"
CCCCCCNC(=O)n1cc(F)c(=O)[nH]c1=O,–,active: 5 µM
Oc1cc2ccccc2cc1O,inactive: -6.08%,–
COc1ccc(Cl)cc1C(=O)NCCc1ccc(S(=O)(=O)NC(=O)NC2CCCCC2)cc1,–,"inconclusive [rising, single point]"
CC(COc1ccccc1)NN (configuration not stated),inactive: -0.511% [at 30.3 µM],–
COCC(=O)O,–,inactive
CN(C(=O)CCCOc1ccc2[nH]c(=O)ccc2c1)C1CCCCC1,–,"inconclusive [rising, partial curve, poor fit]"
NC(=O)[C@@H]1CSSCCC(=O)N[C@@H](CCCCN=C(N)N)C(=O)NCC(=O)N[C@@H](CC(=O)O)C(=O)N[C@@H](Cc2c[nH]c3ccccc23)C(=O)N2CCC[C@H]2C(=O)N1 ([Mpa][hArg]GDWPC-NH2; disulfide 1-7),inactive: -1.64% [at 30.3 µM],–
CCCSSCCC,inactive: -1.94%,–
Cc1ccc2c(c1)OCC(=O)CO2,inactive: 0.482%,–
CCCCCCCCOc1ccccc1C(=O)Nc1ccc(C(=O)OCC[N+](C)(CC)CC)cc1,–,"inconclusive [rising, partial curve, poor fit]"
CCO[Si](CC(C)C)(OCC)OCC,–,"inconclusive [rising, single point]"
CCCCCCOC(=O)c1ccccc1O,inactive: -0.0395%,–
C=C(C)C(=O)Nc1ccc(Cl)c(Cl)c1,–,"inconclusive [fluorescent, full curve, poor fit]"
